This is an account of results in the supplement of paper PMC10369915.

The list shows a part of the results. Cut-off read from the data, not from the text of the source: active = 3.2 or more and inactive = the rest. The signal is at background level for most entries.
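Note: displayed peptides selected on beads carrying the immobilized SH2 domain, with library peptides lacking any tyrosine serving as negative controls.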

In the first assay the target is SHP2 C-SH2 domain E139D. As to the kind of experiment: enrichment score (SH2-bound / input frequency) (ratio); bacterial display of known human phosphotyrosine sites (pTyr-Var adds point mutants) read by sequencing; higher = stronger binding; tyrosines were phosphorylated by kinases first. To be noted: peptide library: pTyr-Var.
With GLIPAYHRFIM [NMNAT1_Y64_V67F], the enrichment score is inactive: 2.17.
Still for that read-out and setting: for CNSFQYGGGGG [NPPA_Y151_R150Q] the value was inactive: 0.948.
Regarding PESTLYRKFTT [NTRK1_Y701_I699T], the enrichment score is inactive: 0.48.
Still for that read-out and setting: for SEASFYKSLNL [NGEF_Y289_YF] the value was inactive: 0.946; for AGIENYKSRFG [NKD2_Y256_T257K], inactive: 0.765.
Regarding TRSYKCLLLSM [NF1_Y491_Y491C], the enrichment score is inactive: 1.79.
Same read-out and setting: for MSRDVYSTDCY [NTRK2_Y702_Y706C] the value was inactive: 0.794.
On the same count and under the same terms, the value for EAEPFYRSLRD [NPHS1_Y1139_YF] was inactive: 0.564.
Same read-out and setting: for FLEKFYKFGSR [NNMT_Y25_YF] the value was inactive: 0.818; for EAEPYYCSLRD [NPHS1_Y1139_R1140C], inactive: 0.747.
Turning to EVTLTYATGIK [NFKB1_Y485_T489I], the enrichment score is inactive: 0.813.
On the same count and under the same terms, the value for INMKKYCKKDY [NTN1_Y490] was inactive: 1.78; that for FSIDFYRVGGH [NTRK2_Y707_T704I_YF] was inactive: 0.925; that for PLLLSYYLIKW [NUP160_Y773] was inactive: 2.58.
On the same count and under the same terms, the value for AACQHYGVHTC [NR4A2_Y275_R278H] was inactive: 1.26.
On the same count and under the same terms, the value for MTYVFYRENLR [NLRP14_Y443] was inactive: 1.63; that for ARKRKYFKKHE [NFIX_Y40] was inactive: 0.383; that for DYLEKYYKFGS [NNMT_Y24] was inactive: 1.42.
Consider EASEQYLTKAS [NRCAM_Y739], for which the enrichment score was inactive: 0.447.

For another assay, the target named is SHP2 C-SH2 domain wild-type. The assay is described as above. To be noted: peptide library: pTyr-Var.
For the molecule GLIPAYHRFIM [NMNAT1_Y64_V67F], the enrichment score was inactive: 2.08.
On the same count and under the same terms, the value for CNSFQYGGGGG [NPPA_Y151_R150Q] was inactive: 0.718; that for PESTLYRKFTT [NTRK1_Y701_I699T] was inactive: 0.458; that for SEASFYKSLNL [NGEF_Y289_YF] was inactive: 1.03.
On the same count and under the same terms, the value for AGIENYKSRFG [NKD2_Y256_T257K] was inactive: 0.687.
Regarding TRSYKCLLLSM [NF1_Y491_Y491C], the enrichment score was inactive: 1.66.
Same read-out and setting: for MSRDVYSTDCY [NTRK2_Y702_Y706C] the value was inactive: 0.747.
On the same count and under the same terms, the value for EAEPFYRSLRD [NPHS1_Y1139_YF] was inactive: 0.501; that for FLEKFYKFGSR [NNMT_Y25_YF] was inactive: 0.839; that for EAEPYYCSLRD [NPHS1_Y1139_R1140C] was inactive: 0.866.
The same measure, in the same setting: for EVTLTYATGIK [NFKB1_Y485_T489I] the value was inactive: 0.873.
On to INMKKYCKKDY [NTN1_Y490], for which the enrichment score was inactive: 1.77.
As to FSIDFYRVGGH [NTRK2_Y707_T704I_YF], the enrichment score was inactive: 1.18.
Same read-out and setting: the value for PLLLSYYLIKW [NUP160_Y773] was inactive: 1.99; that for AACQHYGVHTC [NR4A2_Y275_R278H] was inactive: 1.25; that for MTYVFYRENLR [NLRP14_Y443] was inactive: 1.36.
Regarding ARKRKYFKKHE [NFIX_Y40], the enrichment score is inactive: 0.438.
Same read-out and setting: the value for DYLEKYYKFGS [NNMT_Y24] was inactive: 1.01.
Still for that read-out and setting: for EASEQYLTKAS [NRCAM_Y739] the value was inactive: 0.401.

The next assay deals with SHP2 N-SH2 domain L43F. The description is as above. Particulars: peptide library: pTyr-Var.
With GLIPAYHRFIM [NMNAT1_Y64_V67F], the enrichment score is inactive: 1.86.
On the same count and under the same terms, for CNSFQYGGGGG [NPPA_Y151_R150Q] the value was inactive: 0.556.
With PESTLYRKFTT [NTRK1_Y701_I699T], the enrichment score was inactive: 0.456.
For SEASFYKSLNL [NGEF_Y289_YF], the enrichment score is inactive: 0.84.
As to AGIENYKSRFG [NKD2_Y256_T257K], the enrichment score is inactive: 0.7.
For the molecule TRSYKCLLLSM [NF1_Y491_Y491C], the enrichment score is inactive: 1.45.
Consider MSRDVYSTDCY [NTRK2_Y702_Y706C], for which the enrichment score is inactive: 0.664.
For EAEPFYRSLRD [NPHS1_Y1139_YF], the enrichment score is inactive: 0.489.
Still for that read-out and setting: the value for FLEKFYKFGSR [NNMT_Y25_YF] was inactive: 0.67; that for EAEPYYCSLRD [NPHS1_Y1139_R1140C] was inactive: 0.712.
With EVTLTYATGIK [NFKB1_Y485_T489I], the enrichment score is inactive: 0.839.
In the case of INMKKYCKKDY [NTN1_Y490], the enrichment score was inactive: 1.62.
For the molecule FSIDFYRVGGH [NTRK2_Y707_T704I_YF], the enrichment score is inactive: 0.994.
Same read-out and setting: the value for PLLLSYYLIKW [NUP160_Y773] was inactive: 2.52.
On the same count and under the same terms, the value for AACQHYGVHTC [NR4A2_Y275_R278H] was inactive: 1.08; that for MTYVFYRENLR [NLRP14_Y443] was inactive: 1.68; that for ARKRKYFKKHE [NFIX_Y40] was inactive: 0.291.
The same measure, in the same setting: for DYLEKYYKFGS [NNMT_Y24] the value was inactive: 1.02.
On to EASEQYLTKAS [NRCAM_Y739], for which the enrichment score was inactive: 0.419.

The next assay addresses SHP2 N-SH2 domain T42A. The assay is described as above. To be noted: peptide library: pTyr-Var.
As to GLIPAYHRFIM [NMNAT1_Y64_V67F], the enrichment score is inactive: 1.98.
On the same count and under the same terms, for CNSFQYGGGGG [NPPA_Y151_R150Q] the value was inactive: 0.543.
The same measure, in the same setting: the value for PESTLYRKFTT [NTRK1_Y701_I699T] was inactive: 0.481; that for SEASFYKSLNL [NGEF_Y289_YF] was inactive: 0.827; that for AGIENYKSRFG [NKD2_Y256_T257K] was inactive: 0.61.
The same measure, in the same setting: the value for TRSYKCLLLSM [NF1_Y491_Y491C] was inactive: 1.55; that for MSRDVYSTDCY [NTRK2_Y702_Y706C] was inactive: 0.566; that for EAEPFYRSLRD [NPHS1_Y1139_YF] was inactive: 0.479.
For FLEKFYKFGSR [NNMT_Y25_YF], the enrichment score was inactive: 0.521.
The same measure, in the same setting: for EAEPYYCSLRD [NPHS1_Y1139_R1140C] the value was inactive: 0.617; for EVTLTYATGIK [NFKB1_Y485_T489I], inactive: 0.714.
Same read-out and setting: for INMKKYCKKDY [NTN1_Y490] the value was inactive: 1.55; for FSIDFYRVGGH [NTRK2_Y707_T704I_YF], inactive: 1.13.
The same measure, in the same setting: for PLLLSYYLIKW [NUP160_Y773] the value was inactive: 1.92; for AACQHYGVHTC [NR4A2_Y275_R278H], inactive: 1; for MTYVFYRENLR [NLRP14_Y443], inactive: 1.53.
ARKRKYFKKHE [NFIX_Y40]: the enrichment score was inactive: 0.571.
With DYLEKYYKFGS [NNMT_Y24], the enrichment score is inactive: 1.08.
On the same count and under the same terms, the value for EASEQYLTKAS [NRCAM_Y739] was inactive: 0.364.

The target in another assay is SHP2 N-SH2 domain T52S. The description is as above. To be noted: peptide library: pTyr-Var.
Take GLIPAYHRFIM [NMNAT1_Y64_V67F]: the enrichment score is inactive: 2.37.
The same measure, in the same setting: the value for CNSFQYGGGGG [NPPA_Y151_R150Q] was inactive: 0.609; that for PESTLYRKFTT [NTRK1_Y701_I699T] was inactive: 0.878; that for SEASFYKSLNL [NGEF_Y289_YF] was inactive: 0.735.
In the case of AGIENYKSRFG [NKD2_Y256_T257K], the enrichment score was inactive: 0.6.
Consider TRSYKCLLLSM [NF1_Y491_Y491C], for which the enrichment score was inactive: 1.93.
For the molecule MSRDVYSTDCY [NTRK2_Y702_Y706C], the enrichment score was inactive: 0.577.
Same read-out and setting: the value for EAEPFYRSLRD [NPHS1_Y1139_YF] was inactive: 0.601.
Same read-out and setting: the value for FLEKFYKFGSR [NNMT_Y25_YF] was inactive: 0.612.
Take EAEPYYCSLRD [NPHS1_Y1139_R1140C]: the enrichment score is inactive: 0.631.
Consider EVTLTYATGIK [NFKB1_Y485_T489I], for which the enrichment score is inactive: 0.722.
Still for that read-out and setting: for INMKKYCKKDY [NTN1_Y490] the value was inactive: 1.76; for FSIDFYRVGGH [NTRK2_Y707_T704I_YF], inactive: 1.08.
Regarding PLLLSYYLIKW [NUP160_Y773], the enrichment score was inactive: 2.62.
On the same count and under the same terms, the value for AACQHYGVHTC [NR4A2_Y275_R278H] was inactive: 1.37; that for MTYVFYRENLR [NLRP14_Y443] was inactive: 1.67.
The same measure, in the same setting: the value for ARKRKYFKKHE [NFIX_Y40] was inactive: 0.429.
Consider DYLEKYYKFGS [NNMT_Y24], for which the enrichment score was inactive: 1.3.
The same measure, in the same setting: the value for EASEQYLTKAS [NRCAM_Y739] was inactive: 0.551.

For another assay, the target named is SHP2 N-SH2 domain wild-type. The description is as above. To be noted: peptide library: pTyr-Var.
For the molecule GLIPAYHRFIM [NMNAT1_Y64_V67F], the enrichment score was inactive: 1.67.
Take CNSFQYGGGGG [NPPA_Y151_R150Q]: the enrichment score was inactive: 0.825.
Same read-out and setting: the value for PESTLYRKFTT [NTRK1_Y701_I699T] was inactive: 0.398; that for SEASFYKSLNL [NGEF_Y289_YF] was inactive: 1.18.
Same read-out and setting: for AGIENYKSRFG [NKD2_Y256_T257K] the value was inactive: 0.663; for TRSYKCLLLSM [NF1_Y491_Y491C], inactive: 1.56; for MSRDVYSTDCY [NTRK2_Y702_Y706C], inactive: 1.
The same measure, in the same setting: the value for EAEPFYRSLRD [NPHS1_Y1139_YF] was inactive: 0.635.
Turning to FLEKFYKFGSR [NNMT_Y25_YF], the enrichment score is inactive: 0.572.
Regarding EAEPYYCSLRD [NPHS1_Y1139_R1140C], the enrichment score is inactive: 1.06.
On the same count and under the same terms, the value for EVTLTYATGIK [NFKB1_Y485_T489I] was inactive: 0.814; that for INMKKYCKKDY [NTN1_Y490] was inactive: 1.54.
On the same count and under the same terms, for FSIDFYRVGGH [NTRK2_Y707_T704I_YF] the value was inactive: 1.2; for PLLLSYYLIKW [NUP160_Y773], inactive: 2.43.
Still for that read-out and setting: the value for AACQHYGVHTC [NR4A2_Y275_R278H] was inactive: 1.14.
With MTYVFYRENLR [NLRP14_Y443], the enrichment score was inactive: 1.22.
ARKRKYFKKHE [NFIX_Y40]: the enrichment score is inactive: 0.305.
As for DYLEKYYKFGS [NNMT_Y24], the enrichment score is inactive: 1.4.
The same measure, in the same setting: the value for EASEQYLTKAS [NRCAM_Y739] was inactive: 1.62.
